Results are given in words; binding and its absence hold for the method and conditions named. In cells and extracts the contact can be indirect. Some results given as binding are weak or reduced against the parent protein; the word gives no strength.
Legend:
[1] = target: T1, endogenous DACH1 (human (endogenous in RKO, HCT8, SW480)) (UniProt Q9UI36); assay: co-IP; endogenous proteins; HCT8, RKO and SW480 cells immunoprecipitated with anti-DACH1 or anti-GCN5
T1 sequence: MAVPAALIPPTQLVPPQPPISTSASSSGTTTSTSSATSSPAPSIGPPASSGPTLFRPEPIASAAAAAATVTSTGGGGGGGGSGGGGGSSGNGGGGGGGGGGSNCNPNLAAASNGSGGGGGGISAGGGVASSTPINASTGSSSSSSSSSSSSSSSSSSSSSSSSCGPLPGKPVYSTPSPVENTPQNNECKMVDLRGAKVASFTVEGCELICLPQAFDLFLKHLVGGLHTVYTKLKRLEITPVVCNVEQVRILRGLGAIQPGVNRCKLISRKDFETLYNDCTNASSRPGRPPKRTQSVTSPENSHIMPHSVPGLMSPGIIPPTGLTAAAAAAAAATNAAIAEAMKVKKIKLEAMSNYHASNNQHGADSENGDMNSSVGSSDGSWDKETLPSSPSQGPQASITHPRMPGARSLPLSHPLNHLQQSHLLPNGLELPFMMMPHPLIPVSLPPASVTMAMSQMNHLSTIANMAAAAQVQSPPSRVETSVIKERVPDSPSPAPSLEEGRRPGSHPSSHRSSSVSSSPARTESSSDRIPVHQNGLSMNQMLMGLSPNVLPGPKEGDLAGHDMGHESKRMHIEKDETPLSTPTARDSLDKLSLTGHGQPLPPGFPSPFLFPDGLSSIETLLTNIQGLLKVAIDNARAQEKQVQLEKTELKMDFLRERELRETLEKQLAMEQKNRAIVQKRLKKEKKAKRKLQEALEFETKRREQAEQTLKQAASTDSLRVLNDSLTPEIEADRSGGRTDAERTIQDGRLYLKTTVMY

Protein sequences, listed by entry. Tags and fused reporters are not part of them.
UniProt Q92830: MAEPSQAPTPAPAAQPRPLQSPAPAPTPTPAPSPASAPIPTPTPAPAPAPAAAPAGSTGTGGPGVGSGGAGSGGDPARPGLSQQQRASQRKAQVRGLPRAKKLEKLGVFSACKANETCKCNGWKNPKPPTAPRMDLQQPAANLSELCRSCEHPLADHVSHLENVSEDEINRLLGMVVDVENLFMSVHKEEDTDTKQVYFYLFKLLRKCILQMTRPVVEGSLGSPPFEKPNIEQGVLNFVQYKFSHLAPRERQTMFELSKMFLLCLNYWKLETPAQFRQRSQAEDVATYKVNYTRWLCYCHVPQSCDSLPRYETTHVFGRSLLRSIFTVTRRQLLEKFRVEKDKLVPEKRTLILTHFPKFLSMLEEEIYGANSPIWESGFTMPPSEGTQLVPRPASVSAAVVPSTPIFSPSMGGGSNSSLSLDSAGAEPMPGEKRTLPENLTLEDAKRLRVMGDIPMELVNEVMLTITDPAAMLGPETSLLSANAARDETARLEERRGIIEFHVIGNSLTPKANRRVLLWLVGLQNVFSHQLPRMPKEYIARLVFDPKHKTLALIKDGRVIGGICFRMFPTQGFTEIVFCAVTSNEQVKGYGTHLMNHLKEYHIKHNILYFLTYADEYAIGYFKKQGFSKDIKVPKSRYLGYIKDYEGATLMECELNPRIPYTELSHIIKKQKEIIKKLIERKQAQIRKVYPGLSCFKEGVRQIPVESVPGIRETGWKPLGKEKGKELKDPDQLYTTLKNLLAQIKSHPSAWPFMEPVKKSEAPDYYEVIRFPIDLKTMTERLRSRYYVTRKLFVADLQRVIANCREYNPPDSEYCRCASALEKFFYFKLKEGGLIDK
UniProt Q93009: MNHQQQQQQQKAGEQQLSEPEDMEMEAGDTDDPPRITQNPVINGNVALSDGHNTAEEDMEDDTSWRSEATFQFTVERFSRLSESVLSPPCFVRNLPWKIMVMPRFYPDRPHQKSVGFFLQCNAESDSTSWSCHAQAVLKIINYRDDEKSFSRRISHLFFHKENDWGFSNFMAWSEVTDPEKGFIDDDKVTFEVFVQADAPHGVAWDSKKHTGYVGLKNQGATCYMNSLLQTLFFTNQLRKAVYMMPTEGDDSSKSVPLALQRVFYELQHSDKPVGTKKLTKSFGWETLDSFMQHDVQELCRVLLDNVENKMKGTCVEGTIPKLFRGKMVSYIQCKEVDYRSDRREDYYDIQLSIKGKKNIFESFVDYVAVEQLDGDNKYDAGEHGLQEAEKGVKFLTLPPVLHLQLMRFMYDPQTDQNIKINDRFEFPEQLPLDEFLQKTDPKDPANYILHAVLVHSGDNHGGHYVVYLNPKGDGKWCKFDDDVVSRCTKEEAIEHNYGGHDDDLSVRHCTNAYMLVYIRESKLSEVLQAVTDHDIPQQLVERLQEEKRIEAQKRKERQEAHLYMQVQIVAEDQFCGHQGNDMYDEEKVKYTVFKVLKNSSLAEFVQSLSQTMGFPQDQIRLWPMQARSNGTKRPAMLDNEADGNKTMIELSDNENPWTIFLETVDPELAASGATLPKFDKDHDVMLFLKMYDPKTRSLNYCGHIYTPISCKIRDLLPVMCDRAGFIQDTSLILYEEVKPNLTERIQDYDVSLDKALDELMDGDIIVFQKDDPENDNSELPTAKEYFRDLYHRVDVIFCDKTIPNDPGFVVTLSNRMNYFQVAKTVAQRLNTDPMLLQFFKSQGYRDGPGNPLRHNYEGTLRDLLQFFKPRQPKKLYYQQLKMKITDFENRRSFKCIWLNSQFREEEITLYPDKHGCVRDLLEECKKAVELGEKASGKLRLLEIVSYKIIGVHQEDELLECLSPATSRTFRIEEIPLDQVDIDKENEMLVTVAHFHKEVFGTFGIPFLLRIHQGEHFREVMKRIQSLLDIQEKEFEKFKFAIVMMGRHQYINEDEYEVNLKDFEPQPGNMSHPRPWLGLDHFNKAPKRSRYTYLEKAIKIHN

[2] = target: T1, endogenous DACH1 (human (endogenous in RKO, HCT8, SW480)); assay: co-IP; endogenous proteins; RKO, HCT8 and SW480 cells immunoprecipitated with anti-DACH1 or anti-USP7

| binding [1] | binding [2] | Substance |
| --- | --- | --- |
| binds | – | endogenous GCN5 (from UniProt Q92830 1-837) (enzyme) |
| – | binds | endogenous USP7 (from UniProt Q93009 1-1102) (enzyme) |

From article PMC12089419
